Data from the supplement of paper PMC3334620.
Over roughly 33,000 sequences, “E-score (-0.5 to 0.5)” has its median near -0.021; the highest 2% begin near 0.32. The list shows a part of the results.

Each sequence was assayed against T1, Zap1 (UniProt P47043) (assay: PBM E-score (8-mer binding enrichment) (E-score (-0.5 to 0.5)); higher = stronger / more preferred TF binding; most listed sequences are background and not binding sites). Conditions: protein concentration: 200 nM; construct: GST-full length.
T1 sequence: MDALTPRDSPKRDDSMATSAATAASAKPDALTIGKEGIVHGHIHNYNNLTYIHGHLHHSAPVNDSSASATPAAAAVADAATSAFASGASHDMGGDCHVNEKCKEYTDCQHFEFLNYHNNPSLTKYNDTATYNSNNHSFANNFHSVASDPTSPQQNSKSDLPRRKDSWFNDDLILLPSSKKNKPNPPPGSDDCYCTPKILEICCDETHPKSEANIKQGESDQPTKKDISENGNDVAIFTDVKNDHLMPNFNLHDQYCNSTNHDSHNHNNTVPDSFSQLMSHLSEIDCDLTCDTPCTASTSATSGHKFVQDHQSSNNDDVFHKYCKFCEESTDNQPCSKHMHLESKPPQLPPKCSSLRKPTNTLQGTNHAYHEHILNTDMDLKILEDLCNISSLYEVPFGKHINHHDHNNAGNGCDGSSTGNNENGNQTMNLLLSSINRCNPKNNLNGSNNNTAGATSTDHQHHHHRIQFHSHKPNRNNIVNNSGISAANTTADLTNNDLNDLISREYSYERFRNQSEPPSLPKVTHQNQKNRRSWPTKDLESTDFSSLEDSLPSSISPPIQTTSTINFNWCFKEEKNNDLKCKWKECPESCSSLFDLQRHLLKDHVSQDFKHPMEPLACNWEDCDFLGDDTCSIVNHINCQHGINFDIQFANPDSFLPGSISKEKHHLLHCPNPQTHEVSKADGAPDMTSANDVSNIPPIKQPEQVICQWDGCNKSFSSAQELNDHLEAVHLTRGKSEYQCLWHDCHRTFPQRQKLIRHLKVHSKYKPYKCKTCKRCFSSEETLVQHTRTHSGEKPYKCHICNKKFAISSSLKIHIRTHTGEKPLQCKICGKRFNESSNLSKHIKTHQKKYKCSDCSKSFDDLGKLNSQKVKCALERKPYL
Method in brief: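 Each ungapped eight-base word and its reverse complement, pooled, received an E-score from the Universal PBM Analysis Suite. Underlying scans, normalised with masliner, recorded fluorescent anti-GST bound to GST-tagged yeast transcription factors. These were applied at about 100-200 nM to universal all-10-mer Agilent arrays double-stranded by primer extension.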

Sequence | PBM E-score
AGTTAGCA | -0.0471
ACCAGAGG | 0.0682
ACAATAGG | -0.0709
AATAAAGA | 0.018
AATGCATA | 0.0278
CACAGCCC | -0.199
CAAACCGA | 0.0256
GTGAAGGA | -0.0994
ATGAACAC | 0.178
AAAAATTT | 0.123
GCAAAGAA | 0.199
ACGAAAAT | 0.143
AACAGGGG | 0.0931
GCTTCGCA | -0.225
ATACGATG | -0.0413
AGGGCAAG | -0.086
GAGCGAGC | 0.0767
ACGTATGG | 0.0654
ACTGTCTA | -0.139
ACTTCAAG | 0.00926
ACCGTCTC | 0.105
CCGTTGAC | -0.131
AAAGATCA | 0.12
ACCGACCA | 0.175
ATCAAGGA | 0.0875

Sequence | PBM E-score
ACACCTAC | 0.105
CCTTTCCC | -0.154
ATGTAAAA | -0.0176
ACGATTGG | -0.106
CCATCTCG | -0.102
CTGGTGTA | -0.127
AGCGGTTA | 0.405
AGGGAGCG | -0.11
ATGCCTTC | -0.34
CATACCGG | -0.0293
ATATTCAT | 0.07
AAAATCAG | 0.0163
CAAGGTAA | 0.191
CTTATCAA | 0.0516
CTCTTATC | -0.0224
ATGGATTG | -0.0434
GCTCTACA | -0.00163
AGTACTAC | 0.219
AGAGAAGC | -0.234
GGCTGGCA | -0.361
AACCATCA | 0.199
ATTCATAC | 0.153
ACAACAGG | 0.0859
GATTTTAA | -0.00742
ATGAGTGC | -0.205

Sequence | PBM E-score
ATGCAAAT | -0.112
CTAAAAAA | 0.234
GTCGGATA | -0.0886
ACTATATC | 0.173
CATAGCTA | -0.113
CGAGGCCA | 0.0701
ATGGAGAG | -0.18
GGGGACCC | 0.307
AGGCGACG | -0.0649
AATCTCCT | -0.168
CCCGTGAC | -0.0674
TCAGTCAA | -0.113
GATTGCGC | -0.0295
CAGGGCGC | -0.123
GGCGACAA | -0.093
ACAGCCAA | 0.108
CGCGGAAC | 0.27
ACAAGGGC | -0.137
CCCTAAGG | 0.402
AGTGTAAG | -0.0417
AGCGGAGA | -0.193
ATTTTGGC | 0.045
ACTTTAAC | 0.0891
ACTGGTTA | 0.405
ACAGGCCA | 0.0818

Sequence | PBM E-score
ATATCCCA | -0.00035
CGTCAATC | 0.00182
CAGTTGTA | 0.00516
AGAAGTAG | -0.123
ACTCAAGG | 0.115
TACCCCGA | 0.34
GTACAAAA | 0.272
ATTTCACC | 0.0916
CAACGTTC | -0.269
CTTTCCTA | -0.13
AGGTTGGA | 0.161
CTGTTGAA | 0.0925
ATCGTGTG | -0.037
GCCGGAAC | 0.0756
ATAGTTCA | -0.0275
ATAATGCA | 0.0571
AATCCCGA | 0.0192
ACATTTCA | 0.0346
AGTTGCAT | -0.00701
ACACCCGG | -0.00501
ACAGCAAA | 0.051
CGTGGAAA | 0.219
CGCAGCAC | -0.156
AGAGCATA | -0.14
AATATGGG | -0.0678

Sequence | PBM E-score
ACATACAT | 0.0505
CTTGCTCA | -0.0505
ATTCTTGC | -0.0426
GCTCGGAC | -0.283
CGTCTGCC | -0.141
GTCCACAC | 0.0196
GATATATC | 0.151
ACTGAGTA | -0.153
CTGGAATA | 0.033
AAGACCAG | 0.0216
AACTACGC | 0.0295
GAGCGCCA | -0.291
CGTTTAGA | -0.0461
CACGTTGG | -0.0452
GTAGCAAC | -0.0913
CACCGCAG | -0.0118
ACGGCGCG | -0.0597
CGTCGACC | -0.0268
ATAGCCGC | -0.114
ACTCCATA | -0.0866
AACAGGCA | -0.235
GTCACCCA | 0.0481
CTTACACA | 0.0775
ATACGGAC | -0.159
ATATCGAA | 0.0482

Sequence | PBM E-score
AAGAAAAC | 0.189
ACGATCTC | -0.0656
AAGGTTCT | 0.327
CCTGGTTC | 0.103
CTATGTCC | -0.157
ACCCACAG | 0.2
CAGAAATC | 0.0234
CAGACGTC | -0.276
CGCGAATA | 0.101
CCGTGAAC | -0.0502
CGATTTTA | 0.0299
CAGCGGGA | -0.137
AGATCGAT | -0.0763
ACGATTTC | 0.0069
AGAAAATC | 0.0273
ACACACCG | -0.0413
ATCAAGTC | -0.101
AGTCTCTG | -0.19
ACCCTAAA | 0.416
TATTAGAA | 0.159
GCCGCAAA | 0.0664
AGGAAAAA | 0.043
CCCATGGG | 0.273
ACCATGGG | 0.126
GCAGGTAC | 0.198

Sequence | PBM E-score
GTATACTA | 0.108
TCAAGAAA | 0.264
AATACCTA | 0.212
CGTAATGC | -0.0847
AGAAGCAT | -0.0953
ATGCTACC | 0.179
CGCTACAG | -0.0949
AAAGCGAT | -0.107
CAAGACGC | -0.11
GGAAAAAA | 0.0521
ATTCGATA | -0.00617
TCCGGTAA | 0.109
GAGAAAAA | 0.148
CACCAAGG | 0.00411
AGGCGGAT | -0.171
GCGGTGGA | -0.0833
CCTTACTC | 0.0743
ATTGCGAC | 0.204
CACTTCTC | -0.0883
CTCCCGAG | -0.223
CGGCTGAG | -0.215
CGAGTGCA | -0.113
